Assay results as given in PubChem BioAssay AID1631 (National Center for Advancing Translational Sciences (NCATS), 2009).
Screen size: about 260,000 compounds; about 890 (0.34%) were called active. The inconclusive results got no clear call from the source; some entries with a clear call stand among them for comparison. The call rests on the fitted dose curve; in most records, active means well fitted activation curve with a large enough effect; inconclusive means small, poorly fitted or top-dose-only effect; inactive means no such curve, though single readings can be large or run the other way. Potencies of inconclusive entries are left out as doubtful fits.

Target: Pyruvate kinase PKM (Homo sapiens) (UniProt P14618)
Sequence of UniProt P14618 (P14618 whole entry, looked up, canonical isoform): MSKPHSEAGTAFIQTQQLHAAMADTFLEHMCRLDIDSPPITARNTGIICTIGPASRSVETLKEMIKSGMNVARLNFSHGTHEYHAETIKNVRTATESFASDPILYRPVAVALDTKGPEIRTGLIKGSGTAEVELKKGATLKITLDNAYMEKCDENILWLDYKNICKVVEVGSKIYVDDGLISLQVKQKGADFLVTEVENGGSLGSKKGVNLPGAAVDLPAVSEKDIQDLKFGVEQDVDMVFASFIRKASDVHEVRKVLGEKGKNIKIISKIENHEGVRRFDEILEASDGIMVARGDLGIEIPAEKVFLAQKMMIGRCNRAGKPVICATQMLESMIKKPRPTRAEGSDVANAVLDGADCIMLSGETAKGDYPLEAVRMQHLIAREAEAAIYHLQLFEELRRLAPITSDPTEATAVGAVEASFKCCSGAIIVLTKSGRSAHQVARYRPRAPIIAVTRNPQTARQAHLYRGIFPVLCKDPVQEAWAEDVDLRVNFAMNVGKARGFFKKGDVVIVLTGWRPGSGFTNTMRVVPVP
Assay: qHTS Assay for Activators of Human Muscle isoform 2 Pyruvate Kinase; further: nearly all actives have a fitted effect of over 55% in size
Conditions: purified PKM2, Kinase-Glo ATP luminescence; Potency: activation; activation: at 57.5 µM (top of the series), 0% is enzyme alone, no compound
Method in brief: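 hPK-M2, >95% pure; 0.1 mM ADP / 0.5 mM PEP final; imidazole pH7.2 buffer w/ 7 mM MgCl2, 50 mM KCl; 1 h RT; Kinase-Glo lum. Intermediate enzyme activity for dual inhibitor/activator qHTS.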
Potency means the concentration at half of the fitted maximal effect; tags describe the fitted curve by direction and shape.

Structure (SMILES) | Potency
Cc1cc(NC(=O)CSc2ccc3nnc(-c4cccs4)n3n2)no1 | inconclusive [rising, partial curve]
CCOC(=S)SCC(=O)Nc1ncc(C)s1 | inconclusive [rising, single point]
O=C(Cn1nnc(-c2ccccc2)n1)N/N=C/c1cccc([N+](=O)[O-])c1 | inactive
COc1cccc(CNC(=O)CCCNS(=O)(=O)c2cccs2)c1 | inconclusive [rising, partial curve]
COc1ccc(NC(=O)CC2C(=O)N(C)C(=S)N2Cc2cccs2)cc1 (centres undefined) | inconclusive [rising, partial curve]
Cc1ccccc1-c1nnn(CC(=O)c2ccc(S(=O)(=O)N3CCCC3)cc2)n1 | active: 7.94 µM
CC1(C)CC2CC(C)(CN2C(=O)C23CCC(C)(C(=O)O2)C3(C)C)C1 (centres undefined) | inconclusive [rising, single point]
CCOc1ncccc1C(=O)OCC(=O)N1CCc2ccccc21 | inconclusive [rising, single point]
CC(C)(C)NC(=O)NC(=O)CN1CCN(Cc2ccccc2)CC1 | inactive
Cc1ccccc1OCC(=O)Nc1ccc2c(c1)n(C)c(=O)n2C | inconclusive [rising, single point]
CN1CCN(C(=O)c2cc(COc3c(F)cccc3F)on2)CC1c1ccccc1 (centres undefined) | active: 17.8 µM
CNc1c([N+](=O)[O-])cnn1-c1ccc(Cl)cc1 | active: 7.94 µM
CCOC(=O)c1c(-c2ccccc2)csc1NC(=O)CSc1nnnn1C | active: 3.55 µM
CC1CCN(Cc2c(C(=O)N/N=C/c3cc(Br)ccc3O)nnn2-c2nonc2N)CC1 | inactive
CN(C)S(=O)(=O)c1ccc(N)c([N+](=O)[O-])c1 | inconclusive [rising, single point]
CCOC(=O)Cn1c(=O)oc2cc(S(=O)(=O)N3CCc4ccccc43)ccc21 | inconclusive [rising, partial curve]
Oc1cccc(/C=N/Nc2cc(N3CCCC3)nc(N3CCCC3)n2)c1 | inactive
CC1=C(C)/C(=N\OS(=O)(=O)c2ccccc2)C=CC1=O | inconclusive [rising, partial curve]
O=C1COc2ccc(C(=O)COC(=O)Cc3ccsc3)cc2N1 | inconclusive [rising, single point]
C=CCn1c(=O)[nH]c2cc(C(=O)N3CCN(c4cccc(Cl)c4)CC3)ccc2c1=O | inconclusive [rising, partial curve]
Cc1cc(C)n2c(SCC(=O)Nc3c(C)n(C)n(-c4ccccc4)c3=O)nnc2n1 | inactive
CN(C)CCNC(=O)c1c(CSc2ccccc2)noc1C(=O)NCc1ccccc1 | inconclusive [rising, single point]
COC(=O)c1ccc(CSc2nnc(C)s2)cc1 | inactive
Cc1ccc(/C=c2/sc3nnc(-c4ccccc4Cl)n3c2=O)o1 | active: 8.91 µM
CC1(C)NC(=O)N(CCCCOc2ccc(Cl)cc2C=O)C1=O | inconclusive [rising, single point]

Structure (SMILES) | Potency
N#C/C(=C/c1ccc(N2CCOCC2)o1)C(=O)NC1CCCCC1 | inactive
O=C(c1c[nH]c(C(=O)C(Cl)(Cl)Cl)c1)c1ccc(F)cc1Cl | inconclusive [rising, single point]
C/C=C\C=C\C(=O)N1CC2(CC(c3cccc(NC(=O)COc4ccc(Cl)cc4)c3)=NO2)C[C@H]1C(N)=O (some centres undefined) | active: 15.8 µM
NC1=NC[C@H](c2ccccc2)N1CCCCC1CCCCC1 | inactive
O=C(NCCN1C(=O)S/C(=C\c2cccnc2)C1=O)c1ccc(S(=O)(=O)N2CCCC2)cc1 | inconclusive [rising, partial curve]
COc1ccccc1-c1nnc(SC(C(=O)c2c[nH]c3ccccc23)c2ccccc2)n1C (centres undefined) | inactive
CCCc1nc2ccccc2c(=O)n1/N=C/c1ccc(O)c(O)c1 | inconclusive [rising, single point]
COc1ccc2c(CC(=O)NCCN3C(=O)S/C(=C\c4cccnc4)C3=O)coc2c1 | inconclusive [rising, single point]
c1ccc(-c2nc(-c3ccco3)cs2)nc1 | inconclusive [rising, partial curve]
Cc1cccc(N2CCN(C(=O)c3c(C)nn(Cc4ccccc4Cl)c3C)CC2)c1C | active: 3.55 µM
O=C(CS(=O)(=O)c1ccccc1)Nc1nc(-c2ccccc2)cs1 | inconclusive [rising, single point]
O=C(CNC(=O)c1ccc(Br)o1)OCC(=O)c1cccc([N+](=O)[O-])c1 | inconclusive [rising, partial curve, poor fit]
O=S(=O)(Nc1cc(Sc2cccc3cccnc23)c(O)c2ccccc12)c1ccc(F)cc1 | inconclusive [rising, full curve]
CCc1nnc(NC(=O)CSc2nnc(-c3ccc(NS(=O)(=O)c4ccccc4)cc3)o2)s1 | active: 0.794 µM
COc1ccc(NS(=O)(=O)c2ccc(NS(=O)(=O)c3cccs3)cc2)cc1 | inactive
COc1ccc(N2C(=O)CC(Sc3nc4ccccc4s3)C2=O)cc1OC (centres undefined) | inconclusive [rising, single point]
O=C(N/N=C/C(Cl)=C/c1ccc([N+](=O)[O-])cc1)C(=O)Nc1ccccc1C(=O)O | inconclusive [rising, single point]
S=C(NCc1ccco1)Nc1ccc(Oc2ccc(Cl)cc2)cc1 | inactive
Cc1ccc(S(=O)(=O)c2cc3c(=O)n4ccccc4nc3n(Cc3ccco3)c2=N)cc1C | inconclusive [rising, partial curve]
COc1ccc(S(=O)(=O)N2CCN(C(=O)COc3ccc4c(C)cc(=O)oc4c3)CC2)cc1 | active: 14.1 µM
CC(=O)Nc1nc(C)c(C(C)=O)s1 | inactive
Cc1ccc(S(=O)(=O)NCCCCCC(=O)Nc2nccs2)cc1 | inconclusive [rising, single point]
COc1cccc(C(=O)NC(=S)Nc2ccc(Cl)cc2C(=O)O)c1 | inactive
CC(=O)Oc1ccc(C(=O)Nc2cccc(C(=O)c3cccc(NC(=O)c4ccc(OC(C)=O)cc4)c3)c2)cc1 | inconclusive [rising, partial curve]
O=C1c2ccccc2CC1Sc1nnc(-c2ccncc2)o1 (centres undefined) | inconclusive [rising, partial curve]

Structure (SMILES) | Potency
Cc1ccc(-n2c(-c3ccco3)n[nH]c2=S)cc1 | inactive
CCOC(=O)C(NC=O)(NC(C)(C)C)C(=O)OCC | inconclusive [rising, partial curve, poor fit]
CCC12CC3CC(C1)CC(C(=O)NNC(N)=O)(C3)C2 | inconclusive [rising, single point]
O=C(Cc1cccs1)N1CCC(c2nc3c(nnn3Cc3ccccc3)c(=O)[nH]2)CC1 | inconclusive [rising, partial curve]
CCc1ccnc(NC(=O)NS(=O)(=O)c2ccc(C)cc2)c1 | inconclusive [rising, partial curve]
C/C=C/C=C/C(=O)N1CC2(CC(c3cccc(NC(=O)CCCCC)c3)=NO2)C[C@H]1C(N)=O (some centres undefined) | active: 7.94 µM
Cn1c(SCC(=O)N/N=C/c2ccc(O)c(O)c2)nc2ccccc21 | inconclusive [rising, full curve, poor fit]
O=C(Cc1ccccc1)NCc1n[nH]c(=S)n1-c1ccc(Br)cc1 | inactive
C/C(=N/NC(=O)Cn1nc2ccccc2n1)c1ccc(F)cc1 | inactive
COc1ccccc1N(C(C)=O)C1SC(=O)N(c2ccccc2)C1=O (centres undefined) | inconclusive [rising, partial curve]
CCn1cc(C(=O)NCc2ccc(C)o2)c2cc(OC)c(OC)cc2c1=O | active: 14.1 µM
O=C(c1ccco1)N1CCN(C(=O)c2cc(-c3ccccn3)nc3ccccc23)CC1 | active: 20 µM
O=C(N/N=C/c1cc([N+](=O)[O-])ccc1O)c1ccc(COc2ccc3c(c2)CCC3)o1 | inactive
CCNc1sc(C(=O)c2cccs2)c(N)c1-c1nc2ccccc2s1 | inconclusive [rising, full curve]
Cn1cc([N+](=O)[O-])c(C(=O)Nc2ccc(C3CCCCC3)cc2)n1 | inactive
COc1ccc(N2CCC(CNC(=S)Nc3cccc(C)c3)C2)cc1 (centres undefined) | inactive
CCOC(=O)c1c(-c2ccc(C)o2)csc1NC(=S)NC(=O)c1ccc(F)cc1 | inconclusive [rising, partial curve]
COc1cc(OC)cc(-c2cc3nc(C)c(CCC(=O)NC(C)CCc4ccco4)c(C)n3n2)c1 (centres undefined) | inactive
O=c1[nH]ncc(N2CCN(C(c3ccccc3)c3ccccc3)CC2)c1Cl | inactive
CC(N)(C(=O)O)c1cccc(OCc2cccc(Cl)c2)c1 (centres undefined) | inconclusive [rising, single point]
Cc1ccc(Nc2c(-c3ccccn3)nc3ccc(C)cn23)cc1 | inactive
O=C(NC1CC1)c1cc(-c2ccco2)nc2ccccc12 | inconclusive [rising, single point]
O=C(Cn1cnc2ccccc21)Nc1cccc([N+](=O)[O-])c1 | inconclusive [rising, single point]
Cc1c(F)cccc1NS(=O)(=O)c1ccc2c(c1)n(C)c(=O)c(=O)n2C | active: 0.708 µM
